Test results taken from article PMC4336329 (PLoS ONE, 2015).
Among all 310,000 compounds or so, about 2,200 (0.71%) showed an effect of 50% or more. Effects have a minus sign here. The list shows a part of the results.

target: human ether-à-go-go-related gene (hERG) potassium channel (human, UniProt Q12809); test: primary screen, population patch clamp on CHO cells stably expressing hERG
Sequence (Q12809 whole entry, looked up): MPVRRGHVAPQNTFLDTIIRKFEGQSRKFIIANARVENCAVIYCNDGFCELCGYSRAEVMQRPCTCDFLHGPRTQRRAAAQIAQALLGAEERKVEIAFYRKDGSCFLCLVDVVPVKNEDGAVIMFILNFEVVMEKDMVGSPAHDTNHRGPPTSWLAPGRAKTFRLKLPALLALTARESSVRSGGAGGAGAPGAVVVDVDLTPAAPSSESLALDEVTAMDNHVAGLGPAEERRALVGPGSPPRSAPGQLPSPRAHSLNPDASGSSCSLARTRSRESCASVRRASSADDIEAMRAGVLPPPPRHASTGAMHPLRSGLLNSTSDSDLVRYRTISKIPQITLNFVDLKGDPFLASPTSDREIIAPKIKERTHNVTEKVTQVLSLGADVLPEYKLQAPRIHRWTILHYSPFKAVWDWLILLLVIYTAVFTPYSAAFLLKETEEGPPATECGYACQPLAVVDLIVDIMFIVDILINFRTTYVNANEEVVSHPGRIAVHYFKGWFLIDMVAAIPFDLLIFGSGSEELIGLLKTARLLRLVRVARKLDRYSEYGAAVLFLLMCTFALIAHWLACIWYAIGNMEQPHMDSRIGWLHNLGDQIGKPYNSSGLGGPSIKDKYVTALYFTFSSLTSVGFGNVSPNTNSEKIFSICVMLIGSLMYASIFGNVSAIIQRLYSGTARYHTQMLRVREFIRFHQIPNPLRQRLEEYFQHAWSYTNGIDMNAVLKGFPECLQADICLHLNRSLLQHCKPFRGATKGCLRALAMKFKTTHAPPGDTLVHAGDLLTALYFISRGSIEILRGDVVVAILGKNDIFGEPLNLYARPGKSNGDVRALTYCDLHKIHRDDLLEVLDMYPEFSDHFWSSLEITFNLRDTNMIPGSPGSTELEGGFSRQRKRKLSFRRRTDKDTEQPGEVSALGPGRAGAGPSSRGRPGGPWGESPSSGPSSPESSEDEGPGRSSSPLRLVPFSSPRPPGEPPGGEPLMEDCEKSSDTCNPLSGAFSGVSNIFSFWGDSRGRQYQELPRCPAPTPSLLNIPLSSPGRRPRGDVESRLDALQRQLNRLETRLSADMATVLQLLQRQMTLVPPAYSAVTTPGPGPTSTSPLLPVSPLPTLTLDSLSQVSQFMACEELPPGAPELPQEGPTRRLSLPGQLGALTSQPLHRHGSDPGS

| SMILES | hERG current change (%, negative = inhibition) at 1uM [%] |
| --- | --- |
| CN1CSC(=S)N(C)C1 | 10.9 |
| CCOc1ccc(N/C(N)=N/c2nc(CSc3nnnn3-c3ccccc3)cc(=O)[nH]2)cc1 | -7.73 |
| Cc1ccc(SCCSc2ncccn2)cc1 | 19.1 |
| O=C(COC(=O)CNC(=O)C12CC3CC(CC(C3)C1)C2)NC1CCS(=O)(=O)C1 (centres unmarked) | 7.84 |
| O=C(CN1CCN(c2ccccc2)CC1)Nc1ccc2c(c1)CCC2 | 9.04 |
| COc1cccc(CN(C)C(=O)c2cc(COc3ccc(-n4cncn4)cc3)on2)c1 | -29.2 |
| CCCc1nc2ccccc2c(=O)n1/N=C/c1ccccc1O | 12.9 |
| Cc1ccc(SCCSc2nc(C)cc(=O)[nH]2)cc1 | 14.5 |
| COc1cc(OC)cc(C(=O)N2CCN(Cc3ccccc3C(F)(F)F)CC2)c1 | -2.54 |
| Brc1cnc2nc(SC/C=C/c3ccccc3)[nH]c2c1 | 5.97 |
| CCOc1ccccc1C(=O)N(Cc1sccc1C)C1CCS(=O)(=O)C1 (centres unmarked) | -2.97 |
| O=C(NCc1cccc(Cl)c1)c1cccc(S(=O)(=O)N2CCCCC2)c1 | 12.6 |
| Cc1cc(S(=O)(=O)N2CCCC(C(=O)Nc3ccc(C(=O)O)cc3)C2)ccc1Cl (centres unmarked) | 10.7 |
| Cc1cc(C)n(-c2ccn(Cc3ccc(Cl)cc3Cl)c(=O)n2)n1 | 6.63 |
| CCC(C)Nc1nc(-c2c[nH]c3ccccc23)cs1 (centres unmarked) | 10.7 |
| CN(Cc1nc(-c2cccs2)no1)CC1(N2CCOCC2)CCCCC1 | -3.92 |
| COc1cc(N2CN=c3s/c(=C\c4ccccn4)c(=O)n3C2)cc(OC)c1OC | 6.9 |
| CCCN(CC(=O)Nc1ccccc1C)C(=O)CCCc1c[nH]c2ccccc12 | 7.67 |
| COc1ccccc1NS(=O)(=O)c1ccc(N/N=C/C=C/c2ccccc2[N+](=O)[O-])c([N+](=O)[O-])c1 | 14.3 |

| SMILES | hERG current change (%, negative = inhibition) at 1uM [%] |
| --- | --- |
| CC1(C)CC(=O)C=C(c2cccc3c2oc2ccccc23)C1 | 11.8 |
| CC1(C)C(=O)Nc2ccccc2N1C(=O)COC(=O)CNS(=O)(=O)c1ccc(F)c(F)c1F | 5.83 |
| Cc1ccc(NC2CCCN(C(=O)CCC3=NNC(=O)CC3)C2)cc1C (centres unmarked) | 19.7 |
| C=CCN(C(=O)CCC(=O)Nc1cc(C)on1)C(C(=O)NC(C)(C)C)c1cccc(OC)c1OC (centres unmarked) | 13.3 |
| Cc1ccsc1/C=C(\C#N)C(=O)NCCCN1CCOCC1 | 8.66 |
| CCN(CC)S(=O)(=O)c1ccc(Cl)c(NC(C)=O)c1 | 9 |
| O=C(NCc1ccc(Cl)cc1)c1cc(-c2cccs2)on1 | -4.35 |
| Cc1cccc(NC(=S)NC(=O)c2cc(-c3ccccc3)nc3ccccc23)c1 | 3.91 |
| c1cc(C2CCCCC2)ccc1Oc1nc(N2CCOCC2)nc(N2CCOCC2)n1 | 10.8 |
| CCOC(=O)C1CCN(C(=O)Nc2ccc(OC)c(OC)c2)CC1 | 5.42 |
| Cc1ccc(-c2c3c(nc4sc(C(N)=O)c(N)c24)CCC3)cc1 | 2.41 |
| COc1ccccc1N1CCN(C(=O)c2cccc(N3C(=O)NC4CC3(C)Oc3ccccc34)c2)CC1 (centres unmarked) | 12.5 |
| O=c1[nH]c2ccccc2c2oc(CCl)nc12 | 10.7 |
| O=C(CSc1nnc(-c2cc3ccccc3cc2O)n1Cc1ccco1)N1CCc2ccccc2C1 | 10.1 |
| Br.COCCNc1nc2ccccc2n1CC(=O)c1ccc(OC)c(OC)c1 | 9.18 |
| Cc1cc(C)nc(NC2=NCCN2C(=S)Nc2ccc(C)c(C)c2)n1 | 12.5 |
| CCOc1ccc(OCC)c(S(=O)(=O)N2CCC(C)CC2)c1 | -13.4 |
| Cc1cc(C(=O)CCC(=O)NCC2COc3ccccc3O2)c(C)s1 (centres unmarked) | -3.81 |
| COc1ccc(OC)c(Nc2nc(C3CC3)nc3c2nnn3Cc2ccccc2)c1 | 17.9 |

| SMILES | hERG current change (%, negative = inhibition) at 1uM [%] |
| --- | --- |
| CCN(CCCNC(=O)Cn1ncc2c([nH]c3ccc(C)cc32)c1=O)c1ccccc1 | 13.1 |
| COC(=O)C(OC(=O)c1ccccc1)C(C)Br (centres unmarked) | -5.65 |
| O=c1c2cc(Cl)ccc2nc(-c2ccccc2)n1O | 16.7 |
| CCOC(=O)c1nnc(-c2ccccc2)nc1NC | 2.74 |
| COCCCN1C(=O)C(=O)/C(=C(/O)c2ccc(OC)cc2C)C1c1cccnc1 (centres unmarked) | 13.5 |
| COc1cccc(OCCOc2ccccc2[N+](=O)[O-])c1 | 4.36 |
| O=c1[nH]nc(Sc2ncnc3sccc23)n1CCc1ccccc1 | -5.11 |
| Cl.O=C(Nc1cccc(C(F)(F)F)c1)c1cccnc1NCCO | 6.06 |
| O=C(CSc1nc2ccccc2o1)N1CCN(S(=O)(=O)c2ccc3ccccc3c2)CC1 | 17.9 |
| COc1cc(/C=N/NC(=O)CCn2nc(C)cc2C)ccc1O | 8.93 |
| O=c1c(-c2ccc3c(c2)OCCO3)coc2cc(O)cc(O)c12 | -0.99 |
| O=C(O)CN(c1cccc(C(F)(F)F)c1)S(=O)(=O)c1ccccc1 | 6.78 |
| CCOC(=O)CSc1nnc(Cc2ccccc2)n1Cc1ccco1 | 5.35 |
| O=C(COc1ccccc1C(=O)NCC1CCCO1)Nc1ccc(Br)cc1 (centres unmarked) | -2.23 |
| CCOC(=O)C(Cc1ccc(NC(=O)/C(=C/c2ccccc2)NC(=O)c2ccccc2)cc1)N1C(=O)c2ccccc2C1=O (centres unmarked) | 12.9 |
| CCCCNC(=O)c1[nH]c(C)c(C(C)=O)c1C | 13.9 |
| c1ccc(-c2noc(CCC3CCCC3)n2)cc1 | 21.1 |
| O=C(Nc1cc(C(F)(F)F)ccc1N1CCOCC1)c1ccc2ccccc2n1 | 16 |
